Whole data set: some 33,000 sequences, median “E-score (-0.5 to 0.5)” near -0.01, cut for the highest 2% near 0.26. The list shows a part of the results.
target: Ste12 (UniProt P13574); experiment: PBM E-score (8-mer binding enrichment) (E-score (-0.5 to 0.5)); higher = stronger / more preferred TF binding; most listed sequences are background and not binding sites; conditions: protein concentration: 200 nM; construct: GST-DNA-binding domain
Summary of the method: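 Full-length yeast transcription factors or their DNA-binding domains, GST-tagged and expressed with PURExpress, were applied at about 100-200 nM to universal all-10-mer Agilent arrays. These arrays had been made double-stranded by primer extension on fresh or once-stripped slides. Detection used fluorescent anti-GST, normalisation used masliner, and E-scores for ungapped eight-base words pooled with reverse complements came from the Universal PBM Analysis Suite.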

Sequence | PBM E-score
AAACGTCC | -0.0125
GTGTTCGA | 0.0597
CGTTTTCA | 0.132
AGTCGCAT | -0.0855
ATTATGAA | 0.265
GCTCAAAC | 0.0621
GCGAGCAC | -0.0355
AATCTCAG | 0.00293
GCTTCACA | -0.11
ACTTCTTG | -0.113
CGCTAGTA | 0.0516
CTGGTGGC | 0.069
GATGTCGC | 0.107
GATTGGGA | 0.00516
CTCATACC | -0.108
GGTCCAGA | -0.0878
CGTGAATC | -0.0573
CCAGTACA | -0.0831
ATCTTGAC | -0.0287
AATTGGCA | 0.0144
AGGGGTTC | -0.157
GAACGGTA | -0.17
AGGTGGAC | -0.114
GTTCCGCA | 0.0689
CGTCTACC | 0.00635

Sequence | PBM E-score
GCGGCTAC | -0.133
AACGTACG | -0.114
ACTGCCTG | -0.058
ACGTGAAT | 0.0319
CGCTCACG | -0.0733
AAGTAGAT | 0.111
ACGATGCG | -0.0979
ACTTCATC | -0.0336
GAAGGTAC | -0.0614
AGGTCGTG | -0.135
TCCCCAAA | 0.205
CGATTGTC | 0.00731
CAAAAGCC | -0.105
CTGATCGA | 0.113
AATACAGC | 0.0532
CCAGTGAA | 0.0033
GACGCCTA | -0.192
CCGCGGCG | 0.164
CAAGACCC | -0.0882
AAGACTCG | -0.213
CAGCGCAG | 0.009
CACGCTGA | -0.128
CAATGATA | 0.074
AAAGCCTT | -0.113
CTGCATAA | 0.212

Sequence | PBM E-score
ATTCTTCG | -0.071
GAGGCCAC | -0.142
CGTGATAA | 0.0396
AGTTCACC | -0.0938
GTTTGGTA | 0.237
CCTCACAG | -0.0127
ATCCCTCG | 0.15
AGGTAATA | 0.136
GTGGCCCA | -0.178
AGGCCACA | -0.0447
GTAGCGTA | -0.158
CAAGACGA | -0.0851
ACGTTGAT | 0.0985
CTGGCGGC | -0.0051
AGTGTGCA | -0.0995
CCGACCGG | 0.0778
CGATGCAA | 0.0367
ATGACATA | 0.222
CATAGGTA | -0.127
ATTTGAGC | -0.0962
ACAGCCCA | -0.11
ATCGCTCA | -0.0285
ATTCGATG | -0.0197
ACCGAACT | 0.002
CTGGTTTC | 0.244

Sequence | PBM E-score
AGCACAAC | -0.06
AAGAACAC | 0.0577
AAGGCTGA | -0.0789
AAATTGTG | 0.00926
ACCTGACC | 0.00259
AAAAACAC | 0.233
GACCCCAC | 0.0419
CAGTGCAC | 0.00158
CTCTTATA | 0.267
AGATGCAG | 0.0178
AATTATCT | 0.0433
ATACTTTG | 0.116
GGTCGTGA | -0.166
GAGAACCC | -0.225
TCAATGGA | -0.0125
CTGTCTTC | -0.0969
CAAAGCAC | -0.0493
ACTTCGGG | -0.124
AAAGTCCC | -0.0967
GGGGATCA | -0.169
CGGCACGC | -0.0595
ACCTTGCT | -0.0405
ATATGGAT | 0.0788
TAGCGGAA | 0.013
ATCCACTG | 0.00821

Sequence | PBM E-score
ACAGCTAG | -0.0833
CGTGGGAA | -0.152
GTATTAAC | 0.132
AAAGTTCA | 0.0924
ACTTTACG | 0.0259
TGCCAAAA | 0.145
GATAGAGC | -0.00952
AAGTAGAC | -0.0745
CCCGAATA | 0.0626
AAATTATT | 0.252
GCCGAACA | 0.15
TTCAACAA | 0.0977
CCAACTAG | -0.165
TGCTGTAA | 0.00936
CATGGCAA | 0.0424
AACCTGAA | 0.171
ACACAGGG | -0.153
GGGCTTGA | -0.223
CCAATTGC | -0.14
GGCGATAA | 0.101
CACATCCC | 0.0949
ATGATGAA | 0.108
GACATTAC | -0.0586
AGGCCGAA | -0.0014
TATCGCGA | 0.146

Sequence | PBM E-score
ACCAACTG | -0.0131
AGATCGTC | -0.24
CTCTGGTA | -0.0543
AGCCGTGG | -0.0672
ACAAGGTG | -0.0938
GACGAGGA | -0.0777
AGAAGCAG | -0.053
CATAGTGG | -0.162
CACCGTCG | -0.0882
TGCATGAA | 0.143
CCACTAAC | 0.00893
ATTTACGG | 0.192
GATACAAC | 0.151
AGCAGATA | -0.086
CTTGCATA | -0.045
GACTCAAC | -0.0411
ATTTTGAA | 0.176
AAGGGATT | -0.158
ACTGAGGA | -0.112
ACCCAGCG | -0.282
AAAGAGGT | 0.0384
ACCACTAT | -0.108
CCATTTAC | 0.12
ATTTAGCC | -0.0302
AAAATGGC | 0.165

Sequence | PBM E-score
CGTCACCC | 0.0725
CATAGCGA | -0.237
GTCCCTGA | -0.143
AGGTGGGG | 0.153
CACAGTTC | -0.0233
CACTTTCG | 0.0937
GAGATGGC | -0.0525
GTCCAGAA | 0.0636
GCGGCGGA | 0.144
ATGACTGG | -0.19
CCGTCCCG | -0.0167
GAGCTATC | -0.174
CCTTATGC | -0.0439
CTAGGAAA | -0.0731
TGCATTAA | 0.134
TCTTACCA | -0.00575
AGGGACGA | -0.00547
CAAGTAGA | 0.0983
CCGGCAAC | 0.0592
CGGGCTAA | -0.151
ACCCCGAC | 0.0306
AGTCGAGG | -0.12
TAATAGAA | 0.248
ACTTACCA | 0.014
CCTTGGGA | -0.111

Sequence | PBM E-score
ATATAGAA | 0.179
GTAGACTA | -0.334
CTCAACTA | 0.0428
AGGGTCAG | -0.197
AGACAGAC | 0.165
AGCCTGGA | 0.00174
AATCCCTA | -0.0809
AGGGCTAG | -0.206
ACTATCCT | -0.0072
GAACGAAC | -0.0437
AAAGTCCA | -0.00749
ACTTCCTG | 0.0914
GAATCAAA | 0.168
ATACTTAC | 0.0534
CGATGCAG | 0.0009
GCCTCAAC | -0.103
TAATGCCA | 0.0259
ACTTATCA | 0.111
ATAAGGGG | 0.0195
TCTATCCA | -0.0703
TAGACACA | -0.292
AGTTGTCA | 0.16
AGCTATTG | -0.173
CAGGGGGG | -0.184
AGGTGTTC | -0.0573

Sequence | PBM E-score
CCTACCGC | -0.092
CAGAGGGA | -0.24
CGGAACAC | 0.144
AGTCGTTG | -0.295
ATACGCGC | 0.0383
ATGTCGCA | 0.184
GCGATATA | -0.0904
AAGAAGAA | 0.123
TACATAGA | 0.0766
AGCCTCCG | -0.239
CTCTACGA | -0.171
CCACGCTA | -0.182
CAGTGTCA | 0.0763
CCGTTTCA | 0.46
ACAGGTTG | 0.0928
ATGGAAAG | 0.141
GCAACCGC | -0.184
ACGCAAGA | -0.0677
GATTGGAA | 0.0582
GATACTAA | 0.204
AAGTCATA | 0.149
AGAGGGGA | -0.0217
GTCTCACA | 0.238
AACCGGCG | 0.247
CCATCCTC | -0.204

Sequence | PBM E-score
CAAAGATG | 0.0187
TCCTCGCA | 0.0289
AACTTTGA | 0.218
AGGAAAGA | 0.0338
ACCCGTCG | -0.231
CGCATCTC | -0.0954
AGCACTCG | -0.119
AGTCCTGG | -0.153
ACGGATAA | 0.117
CCACTTCC | 0.0667
AGTTTGAC | 0.0398
ATCAAGAC | -0.0152
CTGCTGCA | -0.0333
CGCAGAAC | -0.122
CATTTCGG | -0.00058
GAAACACA | 0.408
GACCCATC | 0.0104
CGCGGAAA | 0.136
CAGCGACA | -0.0114
AATTAGAG | 0.0381
AAAAAGCT | 0.116
CTCACTAC | 0.00581
CTAGTTGA | 0.175
CCCTGTAA | 0.0396
CCTCGTCA | 0.13

Sequence | PBM E-score
ACTCAGTG | -0.0704
AGTACATA | -0.182
GCAGTTCC | 0.025
ATTCTCAA | 0.252
CAGCTTGA | 0.0235
AGTCTAAG | 0.0673
ATATATGG | 0.0448
ACCATATC | -0.0602
AGGTTAAA | 0.256
CGAGGGCG | -0.0698
ACACAGAC | -0.0967
TCCTCAAA | 0.00931
CGCTCCCC | -0.213
ACGATTCA | -0.0523
AGGGTAAT | 0.0656
AAATGCTA | 0.0451
AGAATATA | 0.0722
AACGGGCA | 0.0332
AATGCATC | -0.141
GGCCGACC | -0.123
TATGCAAA | -0.039
ACTTGTCC | -0.11
ATTAGCGA | 0.0876
ATTACATC | 0.0678
CTAAGGTA | 0.0326

Sequence | PBM E-score
AATACGTC | 0.086
CTTACGCA | -0.146
CGGAGGCC | -0.195
CACTGGCA | -0.128
TCATACAA | 0.112
CCAGCTCG | -0.132
ATATTCTG | 0.0613
CTATTGAA | -0.0235
CGGGGACC | -0.0441
AAGCATTC | -0.096
ATTCCGAG | 0.119
ACGCTTAG | -0.167
AATCGTCT | 0.0938
AGACTACA | -0.32
CAGGTTCG | -0.00185
AGTGTATG | 0.0334
AGGCGTCA | -0.141
TTAAGTAA | 0.189
CTAAGGAC | -0.14
ATTTATGC | 0.149
GACAAAAC | 0.153
AGCCGCAG | -0.239
GAGAGACA | -0.156
CGTAATCC | 0.0832
ACTGTACC | -0.118

Sequence | PBM E-score
AGGGGATC | -0.112
ATTGTCAG | 0.0743
AGCGACCC | -0.00194
GTCTGCAA | -0.199
AGGTATAT | 0.0165
ACAAGCCT | -0.159
TAGTGACA | -0.0814
GGTAGCTA | -0.14
AGATAAGG | 0.084
GGGCCTGA | -0.106
CACTCGCC | -0.0182
AGGGCATG | -0.0523
AGCCTACA | -0.105
ACCGTGAA | -0.0267
ACCTCAGC | -0.11
CTTGCCGA | -0.221
CCGCACCG | -0.0232
ATTAGCTC | -0.0874
ATAACCTA | 0.166
ACACGCTC | -0.0269
GGGGCGCA | -0.0246
ACATTGAA | 0.199
ATCTAGCC | -0.297
CAGACTCG | -0.218
ATCTTCAA | 0.118

Sequence | PBM E-score
AATATGAG | 0.11
AAGGAATG | 0.118
GACGAATA | 0.138
CGTACAGA | -0.251
ACTGATGG | -0.169
AGTGCCAG | -0.121
ACGTAGTA | -0.189
ACGGGCGA | -0.0954
ACAGGTGC | -0.14
ATGTCATC | 0.0215
CACGAAGA | 0.085
CAACAGCC | -0.0347
CCGGTACA | 0.0491
ACGGCAGC | 0.144
CGTAGTGA | -0.213
ACATACTC | -0.0469
AATGTAGC | 0.126
GACACCAC | -0.174
AGATAAAT | 0.131

— the supplement of paper PMC3334620
